Data: the supplement of paper PMC9174493
The list shows a part of the results. Single values of this set are uncertain. Values with irradiation are relative to irradiated vehicle.

What follows are compounds tested on A549-Dual (assay: ISRE reporter (Lucia luciferase) activity, viability-corrected, relative to vehicle (fold change vs vehicle); higher = more activation of STING-IRF / NF-kB immune response reporter). Settings: 10 µM; irradiation: 8 Gy/4 fr.

| SMILES | ISRE reporter |
| --- | --- |
| Cc1cccc(C)c1NC(=O)c1cc(S(N)(=O)=O)c(Cl)cc1O [Xipamide] | 1.05 |
| COc1cc(/C=C/C(=O)OC2CCC34CC35CCC3(C)C(C(C)CCC=C(C)C)CCC3(C)C5CCC4C2(C)C)ccc1O (stereo not given) [Gamma-Oryzanol] | 0.627 |
| CCCCN(CCCC)CC(O)c1cc(Cl)cc2c1-c1ccc(Cl)cc1/C2=C/c1ccc(Cl)cc1 (stereo not given) [Lumefantrine] | 0.555 |
| Cc1nc2n(c(=O)c1CCN1CCC(c3noc4cc(F)ccc34)CC1)CCCC2 [Risperidone] | 0.547 |
| CCCCOc1cc(C(=O)OCCN(CC)CC)ccc1N.Cl [Oxybuprocaine HCl] | 0.752 |
| CC12CCC3c4ccc(O)cc4CCC3C1CCC2=O (stereo not given) [Estrone] | 0.584 |
| NCCC(O)C(=O)NC1CC(N)C(OC2OC(CN)C(O)C(O)C2O)C(O)C1OC1OC(CO)C(O)C(N)C1O.O=S(=O)(O)O.O=S(=O)(O)O (stereo not given) [Amikacin disulfate] | 0.896 |
| O=C(NC(Cc1cc(=O)[nH]c2ccccc12)C(=O)O)c1ccc(Cl)cc1 (stereo not given) [Rebamipide] | 0.932 |
| CC(C)n1c(/C=C/C(O)CC(O)CC(=O)[O-])c(-c2ccc(F)cc2)c2ccccc21.[Na+] (stereo not given) [Fluvastatin Sodium] | 0.352 |
| Cc1cc(C(C)(C)C)c(O)c(C(C)(C)C)c1 [Butylated hydroxytoluene] | 0.659 |
| O=c1[nH]cnc2nc[nH]c12 [Hypoxanthine] | 1.13 |
| CC1CC(C(=O)O)C2CCC3(C)C(=CCC4C5(C)CCC(O)C(C)(C)C5CCC43C)C2C1C (stereo not given) [Ursolic Acid] | 1.28 |
| CC(=O)c1ccccc1 [Acetophenone] | 1.01 |
| CC#CC1(O)CCC2C3CCC4=CC(=O)CCC4=C3C(c3ccc(N(C)C)cc3)CC21C (stereo not given) [Mifepristone] | 0.248 |
| CCc1nn(CCCN2CCN(c3cccc(Cl)c3)CC2)c(=O)n1CCOc1ccccc1.Cl [Nefazodone hydrochloride] | 0.624 |
| COC1C(OC(C)=O)CC(=O)OC(C)C/C=C/C=C/C(OC2CCC(N(C)C)C(C)O2)C(C)CC(CC=O)C1OC1OC(C)C(OC2CC(C)(O)C(O)C(C)O2)C(N(C)C)C1O (stereo not given) [Acetylspiramycin (ASPM)] | 1.04 |
| OCC1OC(O)CC(O)C1O [2-Deoxy-D-glucose] | 0.989 |
| CCCNS(=O)(=O)Nc1ncnc(OCCOc2ncc(Br)cn2)c1-c1ccc(Br)cc1 [Macitentan] | 0.185 |
| C#CC1(O)CCC2C3CCc4cc(O)ccc4C3CCC21C (stereo not given) [Ethinyl Estradiol] | 1.21 |
| COC(=O)NC(C(=O)N1C2CCC(C2)C1c1nc2ccc(-c3ccc4c(c3)C(F)(F)c3cc(-c5cnc(C6CCC7(CC7)N6C(=O)C(NC(=O)OC)C(C)C)[nH]5)ccc3-4)cc2[nH]1)C(C)C (stereo not given) [Ledipasvir (GS5885)] | 0.576 |

| SMILES | ISRE reporter |
| --- | --- |
| CCOC(=O)C1=CC2(CC)CCCN3CCc4c(n1c1ccccc41)C32 (stereo not given) [Vinpocetine] | 0.618 |
| CCCCC(CC)COC(=O)C(C#N)=C(c1ccccc1)c1ccccc1 (stereo not given) [Octocrylene] | 0.153 |
| CC(C)NCC(O)COc1ccc(CCOCC2CC2)cc1.Cl (stereo not given) [Betaxolol HCl] | 0.83 |
| Cc1cc2c(s1)Nc1ccccc1N=C2N1CCN(C)CC1 [Olanzapine] | 1.46 |
| CS(=O)(=O)O.Cc1c(O)cccc1C(=O)NC(CSc1ccccc1)C(O)CN1CC2CCCCC2CC1C(=O)NC(C)(C)C (stereo not given) [Nelfinavir Mesylate] | 0.386 |
| CC1NCc2cc(-c3ccc4c(=O)c(C(=O)O)cn(C5CC5)c4c3OC(F)F)ccc21 (stereo not given) [Garenoxacin] | 0.761 |
| O=c1cc(CO)occ1O [Kojic acid] | 0.955 |
| CO/N=C(\C(=O)NC1C(=O)N2C(C(=O)[O-])=C(CSc3nc(=O)c([O-])nn3C)CSC12)c1csc(N)n1.[Na+].[Na+] (stereo not given) [Ceftriaxone Sodium Trihydrate] | 0.73 |
| CNC1CCCN(c2c(F)cc3c(=O)c(C(=O)O)cn(C4CC4)c3c2OC)C1.O.O (stereo not given) [Balofloxacin Dihydrate] | 0.893 |
| CCCCCCCC/C=C\CCCCCCCC(=O)O [Oleic Acid] | 0.83 |
| NS(=O)(=O)c1cc2c(cc1C(F)(F)F)NC(Cc1ccccc1)NS2(=O)=O (stereo not given) [Bendroflumethiazide] | 0.151 |
| C=C(C)C1CCC2(CO)CCC3(C)C(CCC4C5(C)CCC(O)C(C)(C)C5CCC43C)C12 (stereo not given) [Betulin] | 0.129 |
| C1CCN2CC3CC(CN4CCCCC34)C2C1 (stereo not given) [Sparteine] | 0.691 |
| CC(=O)OCC(=O)C1CCC2C3CCC4=CC(=O)CCC4(C)C3CCC12C (stereo not given) [Deoxycorticosterone acetate] | 0.252 |
| COc1ccc(/C=C/C(=O)Nc2ccccc2C(=O)O)cc1OC [Tranilast] | 0.86 |
| CN(C)C(CCOc1cccc2ccccc12)c1ccccc1.Cl (stereo not given) [Dapoxetine HCl] | 0.927 |
| O=c1cc(O)c(Cl)c[nH]1 [Gimeracil] | 0.602 |
| CC1=C(/C=C/C(C)=C/C=C/C(C)=C/CO)C(C)(C)CCC1 [Vitamin A] | 0.677 |
| CC1=C(C(=O)O)N2C(=O)C(NC(=O)C(N)c3ccccc3)C2SC1 (stereo not given) [Cephalexin] | 0.972 |
| CCOc1ccc2nc(S(N)(=O)=O)sc2c1 [Ethoxzolamide] | 1.34 |
